# Results published in US20170121416A1.
# Target: Nectin-4 on cells (MCF-7, SKBR3) (UniProt Q96NY8)
# Assay: cell-based or functional assay
binder,measurement,value
"anti-Nectin-4 antibody Ha22-2(2,4)6.1 (antibody, from another filing) heavy: EVQLVESGGGLVQPGGSLRLSCAASGFTFSSYNMNWVRQAPGKGLEWVSYISSSSSTIYYADSVKGRFTISRDNAKNSLSLQMNSLRDEDTAVYYCARAYYYGMDVWGQGTTVTVSSASTKGPSVFPLAPSSKSTSGGTAALGCLVKDYFPEPVTVSWNSGALTSGVHTFPAVLQSSGLYSLSSVVTVPSSSLGTQTYICNVNHKPSNTKVDKRV[human IgG1 Fc omitted here] light: DIQMTQSPSSVSASVGDRVTITCRASQGISGWLAWYQQKPGKAPKFLIYAASTLQSGVPSRFSGSGSGTDFTLTISSLQPEDFATYYCQQANSFPPTFGGGTKVEIKRTVAAPSVFIFPPSDEQLKSGTASVVCLLNNFYPREAKVQWKVDNALQSGNSQESVTEQDSKDSTYSLSSTLTLSKADYEKHKVYACEVTHQGLSSPVTKSFNRGEC","IC50 on MCF-7 (pM), in vitro killing with anti-human IgG Fab-saporin",9.94 pM
same,"IC50 on SKBR3 (pM), in vitro killing with anti-human IgG Fab-saporin",0.95 pM
